# Measurements: the supplement of paper PMC3334620
# In all, about 33,000 sequences were measured (“E-score (-0.5 to 0.5)”: median about -0.012, highest 2% from about 0.27 on). The list shows a part of the results.
# Molecular target: T1, Vhr1 (UniProt P40522)
# T1 sequence: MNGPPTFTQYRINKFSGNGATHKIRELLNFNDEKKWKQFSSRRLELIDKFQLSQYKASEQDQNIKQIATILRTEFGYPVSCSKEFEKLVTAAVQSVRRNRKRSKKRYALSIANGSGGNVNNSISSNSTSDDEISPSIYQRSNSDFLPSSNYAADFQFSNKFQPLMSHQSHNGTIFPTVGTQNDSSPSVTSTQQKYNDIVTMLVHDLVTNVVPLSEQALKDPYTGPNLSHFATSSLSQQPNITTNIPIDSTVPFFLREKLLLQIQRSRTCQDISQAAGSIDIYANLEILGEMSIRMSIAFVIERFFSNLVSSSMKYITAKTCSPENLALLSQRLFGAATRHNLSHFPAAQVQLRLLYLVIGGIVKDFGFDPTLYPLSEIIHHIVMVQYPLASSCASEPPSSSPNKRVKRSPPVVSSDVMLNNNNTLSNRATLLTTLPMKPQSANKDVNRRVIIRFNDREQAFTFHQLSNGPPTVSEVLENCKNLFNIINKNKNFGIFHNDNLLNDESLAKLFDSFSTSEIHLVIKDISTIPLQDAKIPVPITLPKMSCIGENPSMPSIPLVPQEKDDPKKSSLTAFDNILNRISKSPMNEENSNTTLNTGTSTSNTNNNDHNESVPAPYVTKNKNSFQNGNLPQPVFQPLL
# Test: PBM E-score (8-mer binding enrichment) (E-score (-0.5 to 0.5)); higher = stronger / more preferred TF binding; most listed sequences are background and not binding sites
# Details: protein concentration: 200 nM; construct: GST-full length
# In short: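 Bound GST-tagged yeast transcription factors, applied at about 100-200 nM to double-stranded universal all-10-mer Agilent arrays, were detected with fluorescent anti-GST. Scans were normalised with masliner. A modified Wilcoxon-Mann-Whitney statistic, the E-score, was assigned to each ungapped eight-base word pooled with its reverse complement by the Universal PBM Analysis Suite.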
row,Sequence,PBM E-score
1,CCGCCACG,0.0872
2,CACCGTTC,-0.138
3,ACTATGGG,0.00269
4,ACTTGGTC,0.0528
5,CTATCATC,0.0643
6,ACTGAGGG,-0.00904
7,CGGTCCAA,-0.203
8,ATAAAGCA,-0.153
9,ATATCAAG,0.128
10,CATACAGG,-0.0305
11,AGATGTAA,-0.128
12,CCCCTGAG,0.0777
13,AATCGTTA,-0.215
14,TCCACGGA,0.0343
15,ATATGCCC,-0.181
16,AGGAACTA,-0.159
17,ATGCCAGG,0.0307
18,ATAGGAAG,0.0182
19,CGTGATCA,0.0904
20,GATGACCC,0.197
21,ACTCGAAC,0.0259
22,AGACTGCG,-0.0524
23,CCAGCTCC,-0.12
24,GAATTGCA,-0.182
25,ATACCTAC,0.04

row,Sequence,PBM E-score
1,GCTTGAGA,-0.202
2,AGTACGGC,0.138
3,ATAGTTTA,0.017
4,CTAGACGA,-0.217
5,ACACCGGG,0.093
6,AGACTGGG,0.146
7,TATTCTGA,-0.0375
8,CTATGGAG,-0.029
9,AAGTTTAC,-0.0802
10,GGGTGCAA,0.0775
11,TAAAGATA,-0.0185
12,GGGAAAGA,-0.185
13,GTCAATGA,0.00946
14,CTGAGATA,-0.128
15,ACTGAGCT,-0.0929
16,AAAGACTT,-0.315
17,CAAGGCGC,0.0922
18,AAAATGCG,-0.134
19,TAGTAAAA,0.0646
20,ATCAAGTA,0.0754
21,CCATACGA,0.0408
22,ACAATCTG,-0.0468
23,AGTATGTA,-0.033
24,ACACCGGC,0.0589
25,CGACTGTA,-0.0309

row,Sequence,PBM E-score
1,AAGCAGTC,0.0873
2,TATCCTAA,-0.158
3,CTTCACTA,-0.0295
4,ACGCTAGA,-0.162
5,ACCGAGGA,-0.0417
6,TAGTGCCA,-0.162
7,AACCGTCA,-0.0439
8,CTGGCGAC,0.0818
9,AACCTTCG,0.00561
10,CGTCTCTA,-0.0812
11,ATATGCTA,0.217
12,GCAAATAA,-0.0475
13,AAGTAAAG,-0.224
14,TAGGTAGA,0.0176
15,ATTCCCAG,0.00366
16,CCTTCAAA,-0.249
17,TTGTCAAA,-0.237
18,GTACTCAC,0.263
19,GCTTCTAC,-0.164
20,AGCAATGG,-0.00957
21,ATGGTGAG,0.0663
22,GACCAGTC,0.12
23,AGGACAGA,-0.0515
24,CCGGTGAC,0.16
25,ACTAGCAC,0.0525

row,Sequence,PBM E-score
1,CTCCGATA,-0.174
2,AGTTGTAA,-0.0353
3,ATTTTATA,0.0319
4,CCTCCCAA,-0.246
5,ACGCTGCT,-0.204
6,GAACTAGA,-0.0357
7,GGAGGAGA,-0.164
8,CAAATTGC,-0.0366
9,CTTGAATA,-0.141
10,CCAAGTGA,-0.0332
11,ATCGCACC,0.00144
12,AAGGTTCC,-0.277
13,GGCGTACC,0.0453
14,ATTAGGAG,0.152
15,CCGATAAC,-0.00184
16,ACAGTGAT,0.156
17,AATGCGGG,0.172
18,ATGGAAGC,-0.0207
19,CAGACATC,0.17
20,GTTTTGAA,-0.0473
21,GGCGGTAA,0.02
22,AAACTTAG,-0.266
23,ATCTGCCC,-0.0314
24,TCGATACA,0.0705
25,CATAGATA,0.176

row,Sequence,PBM E-score
1,TTCGCGAA,0.164
2,CGGAAAGC,-0.21
3,CCTAACAA,-0.175
4,CATCGCTC,0.0629
5,CAGGCTGC,0.0864
6,GTATTAAA,-0.0027
7,GGATCGCA,0.105
8,CCAGGAGA,-0.161
9,CATGGAGA,0.155
10,CCTGATAA,0.0435
11,CCCCTAAA,-0.331
12,TAACGGTA,-0.00831
13,TACTTTGA,0.107
14,GGGTCCGA,-0.0382
15,GCTGGGTA,0.0614
16,AACAGTAT,-0.0379
17,ACTTATGG,-0.0321
18,CCATTGAG,-0.0424
19,AACTTCTC,-0.225
20,CCGATTTC,-0.129
21,CCCCGCCC,0.258
22,ATACCAAA,0.0187
23,ATGCACTC,-0.0811
24,ACAGATAG,-0.0466
25,ATTTCGTA,0.0112

row,Sequence,PBM E-score
1,GGAGTTTA,-0.253
2,AACGTTCC,-0.137
3,CTTGAGAA,-0.168
4,AAGTAAGT,-0.079
5,AACGGCAG,0.107
6,ACTTATAC,0.0273
7,ATTGTGTC,0.143
8,CAATTCTC,-0.0891
9,GATCTCGC,0.095
10,CTGCCGCC,-0.203
11,GTTGCCTA,-0.162
12,CAAGTTGA,0.0434
13,GACCATCA,-0.0183
14,AAAGTTAA,-0.213
15,TACTATGA,0.317
16,AGTCGGAC,-0.0678
17,ATACCGCG,0.211
18,ATTTATTG,-0.113
19,ATAGAAAG,-0.199
20,GTTGGACA,-0.0352
21,GAGCGCTC,-0.0158
22,AATTGCGC,-0.0479
23,CATGGTAA,-0.0174
24,ACGTATAC,0.0616
25,CTTTCCAC,-0.0934

row,Sequence,PBM E-score
1,GGCTAGTA,0.194
2,AGTTAGGA,-0.0805
3,ACTTCCCG,-0.112
4,ACCCTCGT,0.0822
5,CGTATCGA,-0.0288
6,CGTGGGCA,-0.219
7,AACATTGA,0.00112
8,CCACTCGA,0.0905
9,CGTGAGAA,-0.222
10,CGCGGGAC,0.0875
11,CATGGCAC,0.105
12,CACTTCCG,-0.104
13,AGGAATGA,0.116
14,GTGCGACA,-0.0343
15,AGTTAGTC,0.291
16,ACGCAAGT,-0.105
17,AACGAGTG,-0.077
18,TAACAGGA,-0.0644
19,ATACTCCG,0.21
20,GCCGATAC,-0.161
21,CGAAATGC,-0.0453
22,CACGCATC,0.131
